Several values for one entry are separate records, joined by “and”; a condition that tells them apart may be missing. Equal entries are not always repeated. Screen size: about 150,000 compounds; about 540 (0.36%) showed an effect of 50% or more. The list shows a part of the results.

The subject of this experiment is Plasmodium falciparum. The experiment in a line: Primary screen in NF54 nanoGlo assay, in single point, at 2uM, 72h; a lower Z score goes with more inhibition. Format: functional, Erythrocyte. Particulars: timepoint 72 hour.

What is called % Inhibition is the change of the read-out against control, counted positive when it falls. Regarding `CN1Cc2ccccc2-n2ccnc2C12CCN(C(=O)c1ccncc1)CC2`, the “% Inhibition” value is on record as -11% and the Z score is listed as 1.39.

As for `COc1ccc2c(c1)[C@@]1(CCN(C(=O)Nc3ccccc3F)C1)C(=O)N2`, the “% Inhibition” value is reported as -2% and the Z score amounted to 0.34.

Turning to `CCC1(CC)C(=O)NC(=NNc2ccccc2)NC1=O`, the “% Inhibition” value is recorded as -1% and the Z score worked out at 0.21. With `CN1[C@@H]2CC[C@H]1CN(c1nc(C(N)=O)cs1)CC2`, the “% Inhibition” value was found to be 12% and the Z score is reported as -1.52. Take `Cc1nc2ccccn2c1CN1CCC[C@H](C(=O)c2ccccn2)C1`: the “% Inhibition” value came to 10% and the Z score was -1.32.

On to `O=C1N(c2ccccn2)C[C@H]2CN(Cc3ccc(F)cc3)CCN12`, for which the “% Inhibition” value is listed as 0% and the Z score is -0.06. Regarding `CN1CCN2c3cc(Cl)ccc3CC3(C(=O)N(c4ccccc4)C(=O)N(c4ccccc4)C3=O)[C@@H]2C1`, the “% Inhibition” value is listed as 9% and the Z score is -1.16. On to `CCOc1cccc2c1cc(C(=O)NCc1ccc3c(c1)OCO3)n2Cc1ccccc1Cl`, for which the “% Inhibition” value is listed as -17% and the Z score came to 1.63.

On to `Cc1n[nH]c(C)c1CNCCc1c[nH]c2ccccc12`, for which the “% Inhibition” value is -3% and the Z score was 0.71. For `CN1CCN2c3ccccc3CC3(C(=O)NC(=O)N(c4ccc(F)cc4)C3=O)C2C1` (stereo not given), the “% Inhibition” value was -2% and the Z score stood at 0.21. In the case of `Cn1c(O)c(C2=NN[C@H](c3ccccc3)C2)c(=O)n(C)c1=O`, the “% Inhibition” value is on record as 2% and the Z score was -0.3. `CN1C2CCC1CC(Oc1ncc(Cl)cn1)C2` (stereo not given): the “% Inhibition” value was -15% and the Z score amounted to 2.22. On the same counts, the results for `CC(Cc1ccc(Cl)cc1)NC(C)c1nc(C(C)C)no1` (stereo not given) are -1% and 0.08. For `O=C1c2ccccc2NC2(CCN(CC3CCCCC3)CC2)N1c1ccc2c(c1)OCO2`, in that order: -8% and 1.5.

Take `CC(C)(NC(=O)c1cc(S(=O)(=O)F)c[nH]1)c1nccs1`: the “% Inhibition” value was -6% and the Z score is recorded as 0.77. `COc1cccc(OCC#CCN2CCCCC2)c1`: the “% Inhibition” value is recorded as -2% and the Z score was found to be 0.25.

For `COc1ccc(NC(=O)N2[C@H]3CC[C@@H]2c2cnc(C)nc2C3)cc1OC`, the “% Inhibition” value is -9% and the Z score is reported as 1.33. As to `CCn1ccnc1[C@H](C)NC(=O)c1ccc2oc(=O)[nH]c2c1`, the “% Inhibition” value came to 8% and the Z score is on record as -0.93. For `Cc1ncc(CC(=O)N2CCN(C)[C@H](c3ccccc3)C2)c(=O)[nH]1`, the “% Inhibition” value is -6% and the Z score is given as 1.13. In the case of `O=C(Cc1ccn[nH]1)N1CCN(Cc2ccccc2)CC1`, the “% Inhibition” value stood at 34% and the Z score was -3.88. As to `CNc1ccnc(NCC[C@@H]2CCCN3CCCC[C@H]23)n1`, the “% Inhibition” value is 4% and the Z score is recorded as -0.7.

Regarding `Cc1cnc(N2C[C@H]3CN(C)C[C@H]3C2)c(Br)c1`, the “% Inhibition” value is on record as -1% and the Z score is given as 0.19. Take `Cc1c(C(=O)Nc2cccc3c2CCCC3)nnn1C1CCNCC1`: the “% Inhibition” value is listed as 1% and the Z score is -0.13.

On to `Cn1c(-c2ccccc2)c(-c2c(O)n(C)c(=O)n(C)c2=O)[nH]c1=O`, for which the “% Inhibition” value is on record as -16% and the Z score was 2.

Regarding `CN(C)[C@H]1CCC[C@@H]1NC(=O)c1cc(F)cc(Cl)c1`, the “% Inhibition” value is listed as -12% and the Z score stood at 2.3. On the same counts, the results for `O=C(c1ccc(F)cc1F)N1CCN2CCC1C2` (stereo not given) are -4% and 0.51. For the molecule `Fc1c(Cl)cccc1CN1CC[C@@]2(CCCNC2)C1`, the “% Inhibition” value is listed as -9% and the Z score amounted to 0.99.

Turning to `Cc1ccccc1S(=O)(=O)Cc1ccc(C(=O)N2CCC3(CC2)OCCO3)o1`, the “% Inhibition” value is 4% and the Z score was -0.52. In the case of `O=C1NC(c2ccsc2)N2CCCCC12` (stereo not given), the “% Inhibition” value is given as -7% and the Z score was found to be 0.88. `CCN(C(C)=O)c1ccc([C@@](O)(C(=O)OC)C(F)(F)F)cc1`: the “% Inhibition” value was -19% and the Z score stood at 2.5. Regarding `O=C(NC1(Cc2cccc(F)c2)CCC1)c1ccc(S(=O)(=O)F)cc1`, the “% Inhibition” value stood at 3% and the Z score is -0.51.

Regarding `CNc1nnc(CC(=O)N2CCN(C)C[C@@H]2CC(C)C)s1`, the “% Inhibition” value came out at 2% and the Z score is listed as -0.21. Take `Cn1cc2ncn(Cc3cn4ccccc4n3)c(=O)c2n1`: the “% Inhibition” value is 7% and the Z score was -1.4. Take `CC(NC1C[C@H]2CC[C@@H](C1)N2Cc1ccccc1)c1ccccn1` (stereo not given in full): the “% Inhibition” value came to 2% and the Z score is reported as -0.2.

Consider `O=C(O)[C@@]12COc3ccccc3[C@@H]1CN(Cc1ccc(OCCO)cc1)C2`, for which the “% Inhibition” value was -5% and the Z score is 0.5. Take `O=C(NCc1ccncc1)C12CC(CN1Cc1ccccc1)C2`: the “% Inhibition” value is -4% and the Z score amounted to 0.72. `O=C(NCC1(C(F)(F)F)CC1)c1cccc2oc(=O)[nH]c12`: the “% Inhibition” value is -8% and the Z score is given as 1.48. For `Cc1nnc(N2CCN(CCc3cccs3)CC2)c(C#N)c1C`, the “% Inhibition” value stood at 5% and the Z score was -0.57. On the same counts, the results for `Cc1ocnc1C(=O)NCc1ccc(N2CCNCC2)c(F)c1` are -2% and 0.27.

For `Cc1nc([C@H]2CCOC2)cc(N(C)C2CCN(C)CC2)n1`, the “% Inhibition” value was -5% and the Z score amounted to 0.55. In the case of `c1ccc2c(CNCCc3c[nH]c4ccccc34)cccc2c1`, the “% Inhibition” value (2 µM) is 1% and -16%. Regarding `CCOc1ccccc1NC(=O)CN1CC=C(c2cnn(C)c2)CC1`, the “% Inhibition” value was -1% and the Z score came to 0.1. As for `Cc1c(C)[n+]([O-])c([C@H](c2ccco2)C2C(=O)N(C)C(=O)N(C)C2=O)n1Cc1ccccc1`, the “% Inhibition” value is given as -11% and the Z score is listed as 1.99.

The values above are taken from ChEMBL document CHEMBL4888484, “Replenishing the malaria drug discovery pipeline: Screening and hit evaluation of the MMV Hit Generation Library 1 (HGL1) against asexual blood stage Plasmodium falciparum ,using a nano luciferase reporter read-out” (2022).
